The source of these data is article PMC9037475.

Protein sequences, listed by entry. Tags and fused reporters are not part of them.
UniProt Q969H0: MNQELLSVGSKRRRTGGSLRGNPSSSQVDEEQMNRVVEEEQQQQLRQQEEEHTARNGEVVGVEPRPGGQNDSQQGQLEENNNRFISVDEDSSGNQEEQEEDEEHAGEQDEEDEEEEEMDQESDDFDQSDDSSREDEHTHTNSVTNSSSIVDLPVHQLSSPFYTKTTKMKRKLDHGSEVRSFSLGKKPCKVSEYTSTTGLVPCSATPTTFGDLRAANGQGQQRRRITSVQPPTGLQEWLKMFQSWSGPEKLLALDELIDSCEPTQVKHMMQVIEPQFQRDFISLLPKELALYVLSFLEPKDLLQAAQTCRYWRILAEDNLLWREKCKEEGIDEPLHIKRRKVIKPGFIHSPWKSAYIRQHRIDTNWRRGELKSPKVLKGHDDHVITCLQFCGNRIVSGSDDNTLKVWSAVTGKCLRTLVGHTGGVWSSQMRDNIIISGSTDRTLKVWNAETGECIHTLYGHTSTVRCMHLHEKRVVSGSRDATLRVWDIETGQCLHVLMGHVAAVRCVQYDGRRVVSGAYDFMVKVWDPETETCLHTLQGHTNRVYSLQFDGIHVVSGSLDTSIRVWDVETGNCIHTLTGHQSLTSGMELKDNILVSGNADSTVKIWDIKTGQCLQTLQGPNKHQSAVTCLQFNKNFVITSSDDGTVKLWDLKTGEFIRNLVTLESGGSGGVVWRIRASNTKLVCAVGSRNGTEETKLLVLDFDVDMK
UniProt P63208: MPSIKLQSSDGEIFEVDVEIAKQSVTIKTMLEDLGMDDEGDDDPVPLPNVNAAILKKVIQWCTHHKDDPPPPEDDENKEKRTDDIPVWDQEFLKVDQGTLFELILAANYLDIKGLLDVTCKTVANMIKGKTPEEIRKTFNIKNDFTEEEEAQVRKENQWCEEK
UniProt P30281: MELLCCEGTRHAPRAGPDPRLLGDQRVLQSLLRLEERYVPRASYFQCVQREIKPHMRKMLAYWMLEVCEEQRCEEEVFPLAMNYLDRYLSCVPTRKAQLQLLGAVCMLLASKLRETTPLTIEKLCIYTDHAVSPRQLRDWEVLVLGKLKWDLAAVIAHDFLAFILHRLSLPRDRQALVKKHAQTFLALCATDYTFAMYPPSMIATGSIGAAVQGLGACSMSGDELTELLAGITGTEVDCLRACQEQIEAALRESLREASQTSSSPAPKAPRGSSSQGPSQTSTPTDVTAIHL
UniProt P01106: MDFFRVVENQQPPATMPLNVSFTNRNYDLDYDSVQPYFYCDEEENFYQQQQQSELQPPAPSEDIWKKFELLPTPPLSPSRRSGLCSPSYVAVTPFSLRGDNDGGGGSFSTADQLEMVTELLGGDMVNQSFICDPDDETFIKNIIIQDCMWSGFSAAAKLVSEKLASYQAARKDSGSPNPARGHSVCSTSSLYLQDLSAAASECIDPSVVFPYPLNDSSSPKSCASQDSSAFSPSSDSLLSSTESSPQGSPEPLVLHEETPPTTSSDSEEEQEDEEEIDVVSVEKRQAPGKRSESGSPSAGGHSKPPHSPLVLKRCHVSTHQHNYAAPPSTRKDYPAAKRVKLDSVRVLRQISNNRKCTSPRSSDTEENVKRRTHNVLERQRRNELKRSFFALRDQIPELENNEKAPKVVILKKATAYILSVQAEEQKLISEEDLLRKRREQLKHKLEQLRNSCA

These are yes or no findings as the source states them, for the method shown. Binding seen in cells or lysates may run through a third protein. Some binding calls cover weakened binding; strength is not graded here. For part of these data: Sequences can lack the tags named with a protein.

In experiment [1] the target is T1, Flag-Fbxl8 from Sf9 cells (F-box protein of purified SCF^Fbxl8) (UniProt Q96CD0).
T1 sequence: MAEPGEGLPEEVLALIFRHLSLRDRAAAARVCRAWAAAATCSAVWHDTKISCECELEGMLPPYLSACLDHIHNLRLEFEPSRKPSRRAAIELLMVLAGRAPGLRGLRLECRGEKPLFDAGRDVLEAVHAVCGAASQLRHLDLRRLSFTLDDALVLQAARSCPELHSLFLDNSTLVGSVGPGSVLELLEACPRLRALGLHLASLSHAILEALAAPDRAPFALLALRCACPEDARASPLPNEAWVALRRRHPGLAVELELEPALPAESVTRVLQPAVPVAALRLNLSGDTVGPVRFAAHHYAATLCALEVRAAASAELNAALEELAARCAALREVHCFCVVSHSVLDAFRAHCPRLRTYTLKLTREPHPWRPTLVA
The experiment can be described thus: co-IP; Sf9 cells co-infected with Flag-Fbxl8 or Flag-ΔF and Skp1, Cul1, Rbx1; Tween 20 lysis buffer; anti-Flag beads, washed 5 times; Coomassie stain.

Experiment [2] has as its target T2, endogenous Fbxl8 of U2OS cells (human (endogenous in U2OS)) (UniProt Q96CD0).
T2 sequence: T1 sequence
In words: co-IP; endogenous proteins of U2OS cells, harvested 5 hours after MG132 treatment; anti-Fbxl8 antibody crosslinked to Protein A/G beads; blot for c-myc and cyclin D3.

In experiment [3] the target is T3, Flag-Fbxl8 (F-box and Leucine Rich Repeat Protein 8), wild type, expressed in U2OS cells (UniProt Q96CD0).
T3 sequence: T1 sequence
The experiment can be described thus: co-IP; U2OS cells transfected with Flag-tagged F-box proteins, MG132 (10 μM) for 6 hours; EBC buffer; precipitated with anti-Flag beads; blot for endogenous c-myc.

Another experiment deals with T4, Flag-Fbxo31 (UniProt Q5XUX0).
T4 sequence: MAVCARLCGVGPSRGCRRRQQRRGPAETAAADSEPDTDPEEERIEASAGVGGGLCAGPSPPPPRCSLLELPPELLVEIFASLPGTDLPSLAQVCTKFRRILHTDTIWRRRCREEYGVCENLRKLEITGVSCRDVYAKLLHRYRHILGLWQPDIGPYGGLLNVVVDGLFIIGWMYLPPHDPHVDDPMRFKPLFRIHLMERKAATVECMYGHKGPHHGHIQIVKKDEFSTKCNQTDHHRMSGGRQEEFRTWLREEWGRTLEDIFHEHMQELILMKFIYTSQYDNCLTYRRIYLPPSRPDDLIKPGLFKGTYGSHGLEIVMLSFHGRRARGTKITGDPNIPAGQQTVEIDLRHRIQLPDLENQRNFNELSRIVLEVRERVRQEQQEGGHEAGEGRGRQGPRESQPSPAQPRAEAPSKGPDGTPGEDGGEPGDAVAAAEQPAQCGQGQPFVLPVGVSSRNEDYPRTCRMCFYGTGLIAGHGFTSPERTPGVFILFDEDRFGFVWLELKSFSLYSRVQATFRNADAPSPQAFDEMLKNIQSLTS
Described as above.

The next experiment has as its target Flag-Fbxw7 (UniProt Q969H0). The description is as above.

Take “Skp1 (SCF component co-expressed in Sf9 cells) (from UniProt P63208 1-163)”: the binding result in experiment [1] is listed as “binds”.
“endogenous cyclin D3 of U2OS cells (from UniProt P30281 1-292)”: the binding entry in experiment [2] is on record as “binds”.
On to “endogenous c-myc of U2OS cells (from UniProt P01106 1-454)”, for which the binding result in experiment [3] was “binds”; with Flag-Fbxo31 it was “no binding”; with Flag-Fbxw7 it was “binds”; in experiment [2], “binds”.
